Measured values: patent publication US20040242700A1 (priority 2001, published 2004)

Key:
[1] = tested on: influenza A/Aichi/68 (H3N2) virus
[2] = mice; i.p. twice a day; up to a dose of 30 mg/kg/day
[3] = tested on: influenza A/Aichi/68 (H3N2) virus; format: in vivo, mice
[4] = tested on: influenza A/Aichi/68 (H3N2) virus; conditions: infected mice

Structure (SMILES): Nc1c(Br)cc(Br)cc1CN[C@H]1CC[C@H](O)CC1 [ambroxol, 2-amino-3,5-dibromo-N-[trans-4-hydroxycyclohexyl] benzyl amine]
- surviving rate of the infected mice ([1]; 10 mg/kg/day i.p. twice a day, lethal dose of virus, monitored over 10 days, n=10): a half of the infected mice survived
- dose at which the surviving rate reached a peak value ([1]; infected mice, i.p. twice a day): 10 mg/kg/day
- toxicity of ambroxol per se [2]: not toxic
- virus-proliferation (viral titer in BALF) ([3]; 10 mg/kg/day i.p.): significantly inhibited
- virus-proliferation-inhibitory effect (viral titer in BALF) ([3]; 30 mg/kg/day i.p., compared with 10 mg/kg/day): inferior to that described above
- proliferation of the virus ([3]; ambroxol i.p. twice a day, summary statement): significantly inhibited
- pathological changes of the lungs (visual pulmonary lesions) ([4]; 10 mg/kg/day i.p., 4th day from infection): distinctly reduced
- lesion-inhibitory effect (visual pulmonary lesions) ([4]; 30 mg/kg/day i.p., 4th day, compared with 10 mg/kg/day): lower than that specified above
